Test results as given in publication PMC6212790.
The list shows a part of the results. At the low end of the ranking the order means little.

target: T1, GST-Rok-C97-191 (UniProt O34857); experiment: protein binding microarray; settings: Rok is a gene silencer of Bacillus subtilis; high values mean tight binding; most listed sequences are background and not binding sites; double strand, one strand shown;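 also: rank score from −0.5 (least bound) to 0.5 (best bound)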
T1 sequence: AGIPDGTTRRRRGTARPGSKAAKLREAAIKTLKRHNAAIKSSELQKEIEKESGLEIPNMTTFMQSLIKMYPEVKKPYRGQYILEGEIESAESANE

Sequence	binding signal [E-score]
CCCGCTCA	-0.228
AATGTCGG	-0.117
GAGCGTAC	-0.187
CTAACAGA	0.202
CAATAATC	0.0525
CTGGCAGC	-0.153
GTTACTGA	0.173
AACCTTTC	-0.136
TTCTAGAA	0.2
CTGAGTCC	-0.0831
GCTAGAAA	0.314
AGAACATG	0.0464
ACCCCTGA	-0.105
GAACGTCC	-0.241
CCAGACCG	-0.0852
AATCGAAG	0.193
GCAAGCAA	-0.202
CCACCTAC	-0.0319
CCAAACGG	-0.0693
GATTTGTA	0.176
CTCGGGTA	0.109
GGTTGAAC	-0.221
GTTCCTAA	0.0575
AGGATGTA	0.0969
CTGTTTGA	-0.14

Sequence	binding signal [E-score]
AAGGTAAC	0.0652
CAACTAGC	0.214
CTATTCGC	-0.0491
ATTGTACC	0.239
CGGTTGGA	-0.268
AAGTCAAG	-0.109
AATCCAAC	-0.0501
AGCACGGA	0.0231
AAGCCGCG	-0.245
CTGCCTAC	-0.132
GAACGCTA	0.137
CATGAGAG	-0.187
CTAACGCA	0.0173
AGATTCGG	-0.0529
ACCCCCCA	-0.305
GACGTATA	0.174
CCTAGTCC	-0.164
GGAAATTA	0.28
CTTGGGGC	-0.262
ACCTGACA	-0.11
CTGAAGAC	-0.14
AACTTATC	0.168
ATCCTGTC	-0.233
GTACATGA	0.0885
GCTCAGGA	0.0987

Sequence	binding signal [E-score]
ATCGATAG	0.32
ATATATAA	0.449
GCTTCTGA	0.0142
AAATGGTT	0.177
AGACGAAC	-0.00423
AATTCGGT	0.0422
ATAGCAGG	-0.137
AAATAGTT	0.406
AGTCGCGA	-0.211
ATCCAACA	-0.119
AGGGTAAA	0.174
ACAAGCAT	0.0796
GAATTCCA	-0.0181
AACTCTCA	0.0933
CGCATTTA	0.074
AGACGCCC	-0.321
GAGTACTC	-0.0307
TACAGGAA	0.0535
CGCAGAGA	-0.151
AGGGCGAT	-0.0828
ACGAGTGG	-0.0396
ATGGAACC	-0.195
ATTGACGG	-0.0344
TCTGTCCA	-0.187
AATAATGG	0.152

Sequence	binding signal [E-score]
AAGCAAGT	-0.0255
CACCTACA	-0.0593
ATAAAAAT	0.28
GACGACAC	-0.151
ATTATCGA	0.277
ACGACCGC	-0.0419
TAGTCCAA	-0.101
ATAATAAT	0.31
AAAGTGCC	-0.118
GGTCGTCA	-0.0524
TACTCAGA	0.152
GGGCACAA	-0.0838
CATCTGAA	-0.0216
AATGACGT	0.0906
AGGCGAGG	-0.17
GGAAACCC	-0.165
CGCACCCA	-0.0465
AAGGACTT	-0.119
GAAGTCGC	-0.137
CGTGGAAG	-0.14
CGTCGATC	0.0279
ATTCCTTA	0.0527
TGCGAAAA	-0.119
GAAAAACC	0.0262
ACTCCTGA	-0.0592

Sequence	binding signal [E-score]
CCTCAAGC	-0.145
ACGATATC	0.188
CAAGTCTA	-0.201
AAGGCACA	-0.257
CGACAACG	-0.231
CGGTTAAG	0.0266
ACGTGGCA	-0.0377
CGACCTGA	-0.0972
CTGCTATA	0.039
GCGGCTAA	0.0233
AGCGCGCA	0.0348
ACTTTCGG	-0.266
GAGGTATA	0.243
ACAGCAGG	-0.103
TAAGGCGA	-0.0689
AGACCCTA	-0.133
AAGAGGAA	-0.118
AGTAAACG	0.0727
CGTGGCGA	-0.208
GCGCGTAA	0.0054
ACGCAATA	0.142
ATCTGACC	0.192
AAGAATTG	-0.0756
AATTCTAT	0.286
AACGCACG	-0.176

Sequence	binding signal [E-score]
ATTATCTG	0.203
ACATGTGA	0.0923
AATTTTCT	0.209
GACTACGC	0.00274
GCGCGTAC	-0.000337
GTGTTGAA	0.0236
AACACTGA	-0.05
AGACTAAC	-0.066
AGCATTAC	0.0703
AACAGTCA	-0.129
GGCTCCGA	-0.256
CCTTGCCA	-0.118
ACTGGGCG	-0.273
ATGTTTGC	-0.0475
ATCTCTGA	-0.0745
GATGCTAA	-0.0442
CTGGACAG	-0.0421
TTATCAAA	0.147
AGGATGAG	-0.0429
ACCCCGGA	-0.137
TAGCGCTA	0.147
CAATCATG	0.062
AGATAAAG	0.1
CGGATCCA	-0.17
ATTGGTAC	0.278

Sequence	binding signal [E-score]
AAACTCGG	-0.00747
AGTGCCGA	-0.101
ATCGCGAA	0.0721
TACGACTA	0.202
AAAACCGT	-0.149
AATCTCGC	0.0361
TGCTTAAA	0.104
ACCCCGAC	-0.137
GAGCTGGA	-0.0628
CAGGAGCC	-0.242
CTCAACAG	-0.0121
GCTCGATA	0.092
GAGATCTC	0.0034
CGCCAGCA	-0.0439
TACCAGTA	0.211
GAGTTTAA	0.0511
GAGGATGA	-0.18
CGATACAG	-0.103
ACGTGAGT	0.0117
ATTTCAGG	-0.117
TGCGCCCA	-0.209
GGTTAGAC	-0.127
ACTCCAGA	-0.151
TACTAAGA	0.261
TCTCATAA	-0.125

Sequence	binding signal [E-score]
AAGTCAAA	0.0182
CCCCACCA	-0.239
GGACGGTA	0.0698
AGTAACCG	-0.0657
GATCTGAA	-0.0587
GTGCTGTA	0.108
ATAACAAT	0.219
TAAACTTA	0.126
GAAATGAC	0.0247
GTTTGCAA	0.153
AGACACCA	-0.301
GATGCGTA	0.000456
ATGCCTAC	0.253
ATGAGTGC	-0.0369
AAAGGCTT	-0.103
ACACGGTC	-0.306
AGTATGTG	0.214
GCTGAGCC	-0.0869
AGGCTCGG	-0.224
CGCGAGAC	-0.0871
CCGAGGGA	-0.0892
GCCGGCTA	-0.152
GGGACTCA	-0.234
ATGGAGAA	-0.0533
GACCTTTA	-0.194

Sequence	binding signal [E-score]
AAACTCTA	0.0775
AGAAGTCG	-0.0318
TCAGCTAA	0.0706
AAGAAACC	0.103
ATTAGGGG	-0.168
ATCAACGA	-0.0076
ATTGAAAC	-0.0273
AGATACCT	0.182
CTTTACAA	0.143
ATGGGGTC	-0.301
ACGCCCAA	-0.122
CAAGGACC	-0.267
CCATTTCA	-0.0132
AGAGACAC	-0.0235
AAACATTG	0.0181
AATCACAA	0.147
ACTTCCGA	0.0551
GTATGACA	-0.0829
AATCTGAT	0.00651
ACGCACAT	0.134
ACTTTTCA	0.113
CGTTAGGA	-0.0542
GCCACTAC	0.0368
CAAATTCC	-0.0496
ACATTCAC	-0.000613

Sequence	binding signal [E-score]
TCAGCGAA	-0.101
AACGGAAA	0.0543
ACTCTAAG	-0.214
CCGCAATA	0.0938
CAGCGGCC	-0.346
GTAGTTGA	0.217
AGAGCGTG	-0.00588
GCAGTAAC	0.16
CGGTCCCC	-0.469
GAAGAGCC	-0.202
GCTTGTCA	-0.0768
ACGTCAAG	-0.0669
ATTAGGTA	0.222
AGCTTTAC	0.0944
GCACTGCA	0.0712
ATTTGGAC	-0.0118
AATGGGTC	-0.0773
ACCTATAG	0.268
AAACACTA	0.194
ATGCTTTC	0.00474
CCTCCCCA	-0.376
GAAAAGCA	0.0881
GTTCGGCA	0.04
AAGCTCTA	0.0126
ACAGCTGA	0.085

Sequence	binding signal [E-score]
GCAAGTCA	-0.00141
CAGATGCG	-0.144
CGGCAACA	0.00477
GCCAGGGA	-0.203
GTTCAAAA	-0.0057
ATAGTTTG	0.366
CAGAAGGA	-0.186
CGCTCTAC	-0.0294
CATATCGG	0.0167
AGCATTTC	-0.0617
AGATACCG	0.171
CATCAGGC	-0.14
TATAGAGA	0.15
GAAAAATC	-0.0901
ATAATGGA	0.0889
ATTTCAAG	0.0112
AAGCTATC	0.241
AGACAGCG	-0.0757
GGACGCCA	-0.169
CCACAGCG	-0.181
GCTCCGAA	-0.109
CGCGTGCA	-0.0435
AATAGAAT	0.318
CCGAGAGA	-0.0879
CGCGAGAG	-0.135

Sequence	binding signal [E-score]
ACCCAACT	0.22
AATTGGCC	-0.155
ACTCTACA	0.108
CAAGCTCC	-0.0901
ACTAACCA	0.0601
TGCCCGCA	-0.0332
ATCCTCAC	-0.197
CTAACCAG	-0.00926
ACATCTGA	0.247
CCCCAGAA	-0.248
CCTTCAGA	-0.274
ATCGCTGC	0.00433
CAAAGTAC	-0.0306
GCATCGAC	0.00759
AACAGGGC	-0.197
CGCCGGAG	-0.109
GAGCCCCA	-0.312
GACCAGAA	-0.0288
CTGTAGTC	0.103
CGCCCAAG	-0.243
CGATCCAA	-0.0118
CAATGAAC	-0.11
GCGAGTGA	-0.116
AGCGACGG	-0.135
ATACATAC	0.338

Sequence	binding signal [E-score]
CATCTTAC	0.168
TAAGCCTA	-0.156
GACGCGCA	-0.24
ACGGGCTG	-0.124
AGATGGAA	-0.144
CCGCCTGA	-0.202
ATATAATA	0.446
ATCCGAAT	0.0824
CCATTGAC	-0.042
CGCTGGGC	-0.304
CAGATTAC	-0.0715
CCGTGCCA	-0.205
CACAGTTC	0.177
GAGAGTGA	-0.0704
AGAGAAGG	-0.195
CTCTAACA	0.0111
ACGGAGAT	0.0377
CAGGTAAC	0.0142
CGTTAGAA	0.0172
ACTGTATG	0.149
GGAATTAA	0.172
AGTTCCAA	-0.0246
ACTTGGGC	-0.148
AATGTGCT	0.0613
AAGGCTTG	-0.177

Sequence	binding signal [E-score]
CCGCCCAG	-0.329
CTACCGAA	0.257
ATCCAAAC	0.00297
CTCAGGAA	-0.0257
ATTTATCC	0.138
CTAGGTAC	0.132
TAGGAAGA	0.212
GGGTAGCA	-0.148
ATCTTTAC	0.21
AAGAAGGT	-0.0263
AGAAACGC	0.0486
CACACTAC	0.16
GCCCCTTA	-0.453
ACGATTTA	0.216
AGTTTCCC	0.14
AAACTACC	0.473
AATAATTA	0.318
TCCTGAGA	-0.0446
ATCACCGG	-0.025
